In all, about 110,000 compounds went through this assay and about 230 (0.21%) showed an effect of 50% or more. The list shows a part of the results.
These molecules were tested against DPAP1 (Plasmodium falciparum, UniProt Q8IIJ9) (assay: primary screen, percent inhibition; read by cleavage of a fluorogenic dipeptide substrate; higher = more effect of the substance).
Parameters: species or system P. falciparum D10 trophozoite lysates; single well
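Note: 30 min substrate incubation versus DMSO and 10 µM JCP410 controls.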

Sequence of DPAP1 (Q8IIJ9 whole entry, looked up): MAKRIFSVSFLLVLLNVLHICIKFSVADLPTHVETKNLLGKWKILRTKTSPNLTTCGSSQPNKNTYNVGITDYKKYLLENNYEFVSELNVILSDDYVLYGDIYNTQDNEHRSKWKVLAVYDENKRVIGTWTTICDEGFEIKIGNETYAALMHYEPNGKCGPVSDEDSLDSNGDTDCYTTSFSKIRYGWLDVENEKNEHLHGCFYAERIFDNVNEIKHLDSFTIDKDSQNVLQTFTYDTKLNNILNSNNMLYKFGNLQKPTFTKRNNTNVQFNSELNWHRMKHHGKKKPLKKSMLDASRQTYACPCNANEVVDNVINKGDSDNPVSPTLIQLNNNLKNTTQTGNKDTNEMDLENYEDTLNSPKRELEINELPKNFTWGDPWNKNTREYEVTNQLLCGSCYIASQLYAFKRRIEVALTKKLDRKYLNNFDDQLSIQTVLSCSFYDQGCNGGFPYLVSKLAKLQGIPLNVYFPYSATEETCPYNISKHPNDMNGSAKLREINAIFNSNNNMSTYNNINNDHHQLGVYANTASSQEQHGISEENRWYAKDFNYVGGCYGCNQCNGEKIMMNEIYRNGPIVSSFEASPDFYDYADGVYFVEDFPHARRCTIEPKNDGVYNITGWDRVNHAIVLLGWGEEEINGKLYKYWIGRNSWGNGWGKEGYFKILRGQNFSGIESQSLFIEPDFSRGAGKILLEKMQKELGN

Compound | % Inhibition @ 10 uM [%]
CCCCNCC(=O)Nc1sc(C)c(C)c1C(=O)OCC | -0.771
c1coc(CNc2ncnc3c2sc2nc(N4CCOCC4)c4c(c23)CCCC4)c1 | -0.386
COc1cc(C(F)(F)F)ccc1C(=O)NCCc1ccco1 | 3.47
COc1ccc(S(=O)(=O)N2CCCC(C(=O)N3CCc4ccccc4C3)C2)cc1 (centres unmarked) | -3.13
Cc1ccc(SCCC(=O)N2CCN(c3ccccc3)CC2)cc1 | -3.09
O=C(CO)n1c2ccccc2c2ccccc21 | -3.44
CCN(CC)CCN1C(=O)c2ccccc2NC1c1cccc(F)c1 (centres unmarked) | 0.24
OCCN1CCN(c2ncnc3sc4c(c23)CCCC4)CC1 | -4.01
O=C(c1cnc2ccccc2n1)c1ccco1 | 1.05
CCOc1cc(C2C3=C(O)CCCC3=NC3=C2C(=O)CCC3)ccc1OCc1ccccc1 (centres unmarked) | -4.49
COc1ccc(CCNS(=O)(=O)c2cccc(C)c2)cc1OC | 3.9
N#CC1CCN(C(=O)c2ccc3c(Cl)c4c(nc3c2)CCCC4)CC1 | 1.24
CCOc1ccc(NC(=O)Nc2cccc(Cl)c2)cc1 | 0.317
O=S(=O)(Cc1ccccc1)N1CCn2c(nc3ccccc32)C1 | -4.74
Cc1ccc(CNc2nc3c(S(=O)(=O)c4cccc(Cl)c4)nnn3c3ccsc23)cc1 | 5.6
COc1ccc(-n2c(=S)[nH]c3sc4c(c3c2=O)CCC4)cc1 | 84.1
CC(=O)Nc1ccc2[nH]c(-c3ccccc3)nc2c1 | -0.828
CC(=O)Nc1ccc(NC(=O)c2ccccc2)cc1C | -2.82
Cc1ccccc1OC(C)C(=O)Nc1cccc(O)c1 (centres unmarked) | 2.93
CCOC(=O)C1=C(N)OC2=C(C(=O)CC(c3ccccc3Cl)C2)C1c1ccccc1Cl (centres unmarked) | 12.2
Cn1c(=N)n(CCCOc2ccccc2Cl)c2ccccc21 | 3.81
CCOc1cc(C)nn1-c1ccccc1 | 4.73
CC[C@H](NC(=O)[C@H](CS(=O)(=O)Cc1ccccc1)NC(=O)N1CCOCC1)C(=O)CS(=O)(=O)c1ccccc1 | -5.21
O=C(c1ccccc1C(=O)N1CCN(c2ccccc2F)CC1)N1CCN(c2ccccc2F)CC1 | 0.749
O=c1ccc2cc3c4c(oc3cc2o1)CCCC4 | 2.21
O=C(CN1Cc2ccccc2C1=O)N1CCN(Cc2ccccc2)CC1 | 1.86
COc1ccc(C2=N/C(=C\c3c(OC)ccc4ccccc34)C(=O)O2)cc1 | 4.38
c1cc(-c2nn[nH]n2)ccn1 | 3.5
CCOC(=O)N1CCN(Cc2ccc3c(c2)c2ccccc2n3CC)CC1 | 2.1

— paper PMC6919601, “Identification of Plasmodium dipeptidyl aminopeptidase allosteric inhibitors by high throughput screening” (PLoS ONE, 2019)
